Binding data for one molecule are collected here from publication PMC7324386.

Experiment in all cases: co-IP; transient coexpression in N. benthamiana leaves; protein extract immunoprecipitated with anti-HA antibody, immunoblotted with anti-HA and anti-GFP
On the technique in general: Immunoblotting shows a protein as a band on a membrane.

Experiment [1] deals with T1, PUX7-HA (Arabidopsis thaliana) (UniProt Q94JZ8).
T1 sequence: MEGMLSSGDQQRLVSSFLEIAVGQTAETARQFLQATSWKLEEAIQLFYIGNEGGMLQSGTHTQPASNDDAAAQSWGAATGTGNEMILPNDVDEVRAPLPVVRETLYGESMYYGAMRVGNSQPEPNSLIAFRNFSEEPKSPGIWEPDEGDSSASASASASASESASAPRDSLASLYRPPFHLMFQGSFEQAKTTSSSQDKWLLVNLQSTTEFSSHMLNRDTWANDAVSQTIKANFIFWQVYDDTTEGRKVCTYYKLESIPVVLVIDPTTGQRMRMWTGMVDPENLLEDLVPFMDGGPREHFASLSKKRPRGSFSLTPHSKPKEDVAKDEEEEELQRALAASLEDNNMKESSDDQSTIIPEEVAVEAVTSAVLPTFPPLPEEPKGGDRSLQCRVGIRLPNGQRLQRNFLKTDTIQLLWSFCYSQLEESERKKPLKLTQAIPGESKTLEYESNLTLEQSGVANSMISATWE

Experiment [2] addresses T2, PUX5-HA (Arabidopsis thaliana) (UniProt Q7Y175).
T2 sequence: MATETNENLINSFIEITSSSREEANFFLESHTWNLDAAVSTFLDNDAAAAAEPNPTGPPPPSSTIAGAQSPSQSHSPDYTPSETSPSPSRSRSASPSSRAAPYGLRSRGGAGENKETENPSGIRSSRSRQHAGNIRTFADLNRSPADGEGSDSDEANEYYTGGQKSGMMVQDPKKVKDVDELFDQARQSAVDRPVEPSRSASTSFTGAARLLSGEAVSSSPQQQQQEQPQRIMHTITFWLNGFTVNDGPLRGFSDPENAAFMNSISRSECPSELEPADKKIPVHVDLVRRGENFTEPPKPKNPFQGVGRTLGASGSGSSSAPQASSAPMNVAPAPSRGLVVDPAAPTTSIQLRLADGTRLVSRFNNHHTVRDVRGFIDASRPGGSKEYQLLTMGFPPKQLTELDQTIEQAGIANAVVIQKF

Experiment [3] has as its target T3, PUX4-HA (Arabidopsis thaliana) (UniProt Q8RWU7).
T3 sequence: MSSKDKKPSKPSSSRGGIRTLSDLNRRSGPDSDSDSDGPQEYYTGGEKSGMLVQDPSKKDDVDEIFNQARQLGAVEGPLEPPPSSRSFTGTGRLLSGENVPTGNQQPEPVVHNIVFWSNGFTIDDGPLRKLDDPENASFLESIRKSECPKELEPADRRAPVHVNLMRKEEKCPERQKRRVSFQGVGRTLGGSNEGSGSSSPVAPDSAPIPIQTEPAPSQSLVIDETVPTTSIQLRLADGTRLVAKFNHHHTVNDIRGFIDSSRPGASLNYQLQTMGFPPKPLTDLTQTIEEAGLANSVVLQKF

Results are given in words; binding and its absence hold for the method and conditions named. In cells and extracts the contact can be indirect. Some results given as binding are weak or reduced against the parent protein; the word gives no strength. Sequences can lack the tags named with a protein.

B1: GFP-SUN1 (protein, UniProt Q9FF75 1-471)
chain: MSASTVSITANTAAATRRTPILAGEKKSNFDYPQSESLANGGVGEAGGTSRDLSRGEATLDRSQGQDLGPVTRRSVSAATGTNTTATQRRTRKVATPKSEKARWKTVVRIFAKQLGALLIIVGLIQLTRKMILKASSPSSPISSYETEMAFSGLESRIAEVDGLVKATTNSMQVQVELLDKKMEREAKVLRQEIERKASAFQSELKKIESRTESLEKSVDEVNAKPWVTKDELERIYEELKKGNVDDSAFSEISIDELRAYARDIMEKEIEKHAADGLGRVDYALASGGAFVMEHSDPYLVGKGSSWFATTMRRAHTNAVKMLSPSFGEPGQCFPLKGSEGYVQIRLRGPIIPEAFTLEHVAKSVAYDRSSAPKDCRVSGSLQGPESSAETENMQLLTEFTYDLDRSNAQTFNILESSSSGLIDTVRLDFTSNHGSDSHTCIYRFRVHGRAPDPVPVVGTNLDQDSSPESE
On to B1, for which the binding entry is given as “no binding” in experiment [1], “binds” in experiment [2] and “binds” in experiment [3].
